The record followed here is paper PMC6919601, “Identification of Plasmodium dipeptidyl aminopeptidase allosteric inhibitors by high throughput screening” (PLoS ONE, 2019).

Where “and” joins values, the source holds several entries; their conditions need not be identical. Equal entries are not always repeated. In all, about 110,000 compounds went through this assay and about 230 (0.21%) showed an effect of 50% or more. The list shows a part of the results.
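Also: 30 min substrate incubation versus DMSO and 10 µM JCP410 controls.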

DPAP1, sequence (Q8IIJ9 whole entry, looked up): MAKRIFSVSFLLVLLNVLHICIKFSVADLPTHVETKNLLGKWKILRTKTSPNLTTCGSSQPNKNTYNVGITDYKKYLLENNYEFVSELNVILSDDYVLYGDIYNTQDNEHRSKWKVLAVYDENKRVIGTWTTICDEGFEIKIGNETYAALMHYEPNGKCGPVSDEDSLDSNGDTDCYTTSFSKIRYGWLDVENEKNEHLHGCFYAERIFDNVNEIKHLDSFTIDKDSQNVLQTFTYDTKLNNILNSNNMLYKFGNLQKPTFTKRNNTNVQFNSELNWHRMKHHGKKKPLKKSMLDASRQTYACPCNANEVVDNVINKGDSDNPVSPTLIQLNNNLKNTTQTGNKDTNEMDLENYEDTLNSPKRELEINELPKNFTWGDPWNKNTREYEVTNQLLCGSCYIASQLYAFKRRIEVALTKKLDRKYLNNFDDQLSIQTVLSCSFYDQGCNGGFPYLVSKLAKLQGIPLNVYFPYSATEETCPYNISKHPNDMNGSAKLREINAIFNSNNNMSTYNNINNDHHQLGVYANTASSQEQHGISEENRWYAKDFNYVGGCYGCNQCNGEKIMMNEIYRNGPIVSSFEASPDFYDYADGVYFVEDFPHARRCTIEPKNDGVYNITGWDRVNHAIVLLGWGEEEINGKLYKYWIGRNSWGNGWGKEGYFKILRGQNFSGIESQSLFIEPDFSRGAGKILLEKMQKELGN

The test has as its target DPAP1 (Plasmodium falciparum, UniProt Q8IIJ9). Kind of test: primary screen, percent inhibition; read by cleavage of a fluorogenic dipeptide substrate; higher = more effect of the substance. On the set-up: species or system P. falciparum D10 trophozoite lysates; single well.
For `COCCCNC(=O)c1cc2c(=O)n3ccccc3nc2n(CC2CCCO2)c1=N` (stereo not drawn), the “% Inhibition @ 10 uM” value was -1.47%. `CCCCCNC(=O)C1CC(C)=C(C)CC1C(=O)O` (stereo not drawn): the “% Inhibition @ 10 uM” value is listed as -8.3%. Take `Cc1c(CNCCc2cccs2)c(C(=O)O)c(C)n1Cc1ccccc1F`: the “% Inhibition @ 10 uM” value was -5.49%. In the case of `CN1CC[C@](O)(c2ccccc2)[C@H]2CCCC[C@H]21`, the “% Inhibition @ 10 uM” value came to 2.47%.

As for `O=C(O)CCc1nc2ncccc2c(=O)n1Cc1ccccc1Cl`, the “% Inhibition @ 10 uM” value is given as -0.72%. `CCn1c(C)c(C2N3CC4(C)CN2CC(c2ccccc2)(C3)C4=O)c2ccccc21` (stereo not drawn): the “% Inhibition @ 10 uM” value is -3.24%.

Take `CCOC(=O)c1cc2c(=O)n3ccccc3nc2n(C(C)C)/c1=N\C(=O)c1ccc(F)cc1`: the “% Inhibition @ 10 uM” value was -1.3%. With `CCC1(C)[N+]([O-])=C(C)C(c2ccccc2)=[N+]1[O-]` (stereo not drawn), the “% Inhibition @ 10 uM” value turned out to be 1.63%. In the case of `CC(=O)Nc1ccc(NC(=O)c2ccco2)cc1`, the “% Inhibition @ 10 uM” value was -4.26%.

As to `CCOc1ccc(CNC(=O)C2=C(C)C(=O)OC23CCN(S(=O)(=O)CC)CC3)cc1`, the “% Inhibition @ 10 uM” value is on record as -1.95%. Regarding `CC1(C)CC2CC(C)(CN2C2CC(=O)N(c3ccc(Br)cc3)C2=O)C1` (stereo not drawn), the “% Inhibition @ 10 uM” value was -5.69%.

On to `CC(C)CCNC(=O)C1CCN(S(C)(=O)=O)CC1`, for which the “% Inhibition @ 10 uM” value was found to be 3.66%. For `Cn1c(=O)c2c(nc(SC(c3ccccc3)c3ccc(Cl)cc3)n2C)n(C)c1=O` (stereo not drawn), the “% Inhibition @ 10 uM” value is given as -2.37%. `O=C(CCCOc1ccc(Cl)cc1Cl)NC1CCCCCC1`: the “% Inhibition @ 10 uM” value was determined as 3.48%.

As for `COc1ccc(C(=O)NCc2cn3cccc(C)c3n2)c(OC)c1`, the “% Inhibition @ 10 uM” value was determined as 0.00665%. For `Cc1ccc(-n2nc(C)c3c2OC(N)=C(C#N)C3c2ccc(F)cc2F)cc1` (stereo not drawn), the “% Inhibition @ 10 uM” value is -4.57%. Regarding `COc1cc(OC)cc(OCC(O)Cn2c(C)nc3ccccc32)c1` (stereo not drawn), the “% Inhibition @ 10 uM” value came out at 5.5%.

For the compound `COc1cc(/C=C2/C(=N)N3OC(C)=CC3=NC2=O)ccc1OCC(C)C`, the “% Inhibition @ 10 uM” value is given as 2%. For `CCN1C(=O)CN(c2ccccc2)C1=S`, the “% Inhibition @ 10 uM” value is -4.06%. The result for `COc1ccc(C[C@H](NC(=O)c2ccccc2)C(=O)NCC#N)cc1` reads -0.214%. For `Cc1nn(C(C)C(=O)NCCN2CCCCC2C)c(=O)c2c1sc1ccccc12` (stereo not drawn), the “% Inhibition @ 10 uM” value is recorded as -3.1%. Turning to `O=C(NCc1cccnc1)C1CCCN(c2ncnc3c2nc2n3CCCCC2)C1` (stereo not drawn), the “% Inhibition @ 10 uM” value is recorded as 2.13%. Take `COCC(C)NC(=O)c1cnn2c(C(F)F)cc(-c3ccc(C)cc3)nc12` (stereo not drawn): the “% Inhibition @ 10 uM” value is on record as 3.88%.

With `CC(C)C[C@H](NC(=O)c1ccc(NC(=O)Cc2cccnc2)cc1)C(=O)NCC#N`, the “% Inhibition @ 10 uM” value is reported as -0.778%. `CCOC(=O)N1CCN(C(=O)CSc2nnc(COc3ccc(Cl)cc3)o2)CC1`: the “% Inhibition @ 10 uM” value was determined as 3.51%. The result for `CCn1ccc(C(=O)Nc2sc3c(c2C#N)CCC3)n1` reads -1.37%; that for `COc1cc(SC)ccc1C(=O)NCCOc1ccc(C)c(C)c1`, -1.84%; that for `CCc1ccc(NC(=O)CCCc2ccc(OC)cc2)cc1`, -6.77%. For `COCCCNC(=O)CCc1nnc2ccc(N3CCC(C)CC3)nn12` the value was -4.02%; for `COc1ccc(-c2noc(CNC(=O)c3cccc(F)c3)n2)cc1`, -2.99%. The result for `CCCOc1ccc(-c2cc(C(=O)NCC3CCCO3)c3ccccc3n2)cc1` (stereo not drawn) reads 2.54%; that for `CC1CCC(NC(=O)c2ccc(CS(=O)(=O)Cc3ccccc3F)o2)CC1` (stereo not drawn), 3.93%; that for `Cc1c(CNC(=O)C2CC2c2ccc(C(C)(C)C)cc2)cnn1C` (stereo not drawn), -5.41%. Take `COc1ccc(CCNCc2c(C(=O)O)c(C)n(Cc3ccc(F)cc3)c2C)cc1OC`: the “% Inhibition @ 10 uM” value was -0.23%. Regarding `O=C(COc1ccc(Br)cc1)Nc1cccc(O)c1`, the “% Inhibition @ 10 uM” value is -8.3%. Turning to `CCOC(=O)N1CCC(NC(C)COC)CC1` (stereo not drawn), the “% Inhibition @ 10 uM” value was 4.74%. For `CC1CCC(N(CCO)Cc2ccccc2)CC1` (stereo not drawn) the value was -0.0953%. As for `Cc1sc(NC(=O)CC23CC4CC(CC(C4)C2)C3)c(C(N)=O)c1-c1ccccc1`, the “% Inhibition @ 10 uM” value was 4.96%. In the case of `Cc1ccc(Cl)cc1NC(=O)C1CCCCC1`, the “% Inhibition @ 10 uM” value was -2.36%.

As to `COc1ccc(CN(C)S(=O)(=O)c2nnc(NC(=O)c3cccs3)s2)cc1OC`, the “% Inhibition @ 10 uM” value is -3.99%.

As for `CC(=O)OC1CCC2(C)C(=CCC3C2CCC2(C)C(C(=O)O)CCC32)C1` (stereo not drawn), the “% Inhibition @ 10 uM” value was 2.62%. On to `Cc1ccc(CS(=O)(=O)CCC(=O)NCCC2=CCCCC2)cc1`, for which the “% Inhibition @ 10 uM” value amounted to 0.514%. For `COc1ccccc1C(=O)Nc1cccc(-c2nc3ncccc3o2)c1`, the “% Inhibition @ 10 uM” value was -3.71%.

In the case of `CCN(CC)CCOc1ccc(C23CC4CC(CC(C4)C2)C3)cc1`, the “% Inhibition @ 10 uM” value is listed as 1.33%.

As to `Cc1oc2cc(OC(C)C)ccc2c(=O)c1-c1ccccc1`, the “% Inhibition @ 10 uM” value came to 2.55%. In the case of `CCc1c(O)n(C(C)CC)c(SCc2ccccc2)nc1=O` (stereo not drawn), the “% Inhibition @ 10 uM” value was 1.9%. Regarding `CCOc1ccc2c(=O)c(Oc3ccc(F)cc3)c(C)oc2c1`, the “% Inhibition @ 10 uM” value was 6.41%.

For `COC(=O)c1cc(S(=O)(=O)NCC2CCN(CCc3cccs3)CC2)cn1C`, the “% Inhibition @ 10 uM” value is given as -3.57%. As to `COc1cccc(C(=O)Nc2cccc(OCC(=O)c3ccc(F)cc3)c2)c1`, the “% Inhibition @ 10 uM” value is reported as 3.8%. As for `Brc1ccc(CSc2nnc(-c3ccccc3)o2)cc1`, the “% Inhibition @ 10 uM” value is -3.04%. For `O=C(O)c1[nH]c2ccc(Cl)cc2c1CC(=O)N1CCN(Cc2ccccc2)CC1`, the “% Inhibition @ 10 uM” value is reported as 2.97%. For the compound `CC1CCCCC1NS(=O)(=O)c1ccc2oc(=O)c3ncn(C)c3c2c1` (stereo not drawn), the “% Inhibition @ 10 uM” value is given as -3.84%. For `CCOc1ccc(C2C3=C(O)CCCC3=NC(C)=C2C(=O)Nc2ccccc2C)cc1OC` (stereo not drawn) the value was 2.36%. For the compound `COc1ccc(C(=O)CCC(=O)NC(Cc2ccccc2)c2ccccc2)cc1` (stereo not drawn), the “% Inhibition @ 10 uM” value is on record as -8.86%. For the compound `C=CCOc1cccc(CNc2ccc3[nH]c(O)nc3c2)c1`, the “% Inhibition @ 10 uM” value is given as -4.12%. For the compound `COc1ccccc1NC(=O)CC1Sc2ccccc2NC1=O` (stereo not drawn), the “% Inhibition @ 10 uM” value is on record as -3.93%. For `CCn1cc(C(C)NC(=O)c2ccc(COCC(F)(F)F)cc2)c(C)n1` (stereo not drawn) the value was -6.67%; for `O=[N+]([O-])c1cc(CN2CCc3ccccc3C2)ccc1Cl`, -3.71%. Take `O=C1NN(c2ccc(Cl)c(Cl)c2)C(=O)/C1=C/c1ccco1`: the “% Inhibition @ 10 uM” value was -1.5%. For `Cc1cccc2c1CC(C)(C)N/C2=C\C(N)=O` the value was -5.1%.

Regarding `Nc1c(C(=O)NCc2ccco2)nnn1Cc1ccccc1`, the “% Inhibition @ 10 uM” value is given as 2.83%.

Consider `OC(COc1ccc(Cl)cc1)CN1CCOCC1` (stereo not drawn), for which the “% Inhibition @ 10 uM” value is reported as -1.76%. For `COc1ccc(-c2cc(C(=O)O)c3c(-c4ccccc4)[nH]nc3n2)c(OC)c1OC` the value was -0.0401%; for `N#Cc1c(-c2ccc(Cl)cc2)cc(C2CC2)nc1N`, -1.5%. Take `Cc1ccc(-c2onc(C)c2C)cc1S(=O)(=O)NCCN1CCCCCC1`: the “% Inhibition @ 10 uM” value came out at 1.32%. Turning to `COc1cccc(C2c3c(oc4ccccc4c3=O)C(=O)N2c2nncs2)c1` (stereo not drawn), the “% Inhibition @ 10 uM” value came to 2.1%. `CC(C)N(Cc1nc(-c2ccccc2)no1)C(=O)C(C)(C)Oc1ccc(Cl)cc1`: the “% Inhibition @ 10 uM” value is -4.31%. The result for `CN(C)c1ccc(/C=C2\SC(=O)N(Cc3ccccc3)C2=O)cc1` reads 0.24%; that for `Cc1cc([N+](=O)[O-])cc2c1N(C)C(=O)C2=O`, -2.15%. `O=[N+]([O-])c1c(N2CCOCC2)cc(Cl)c2nonc12`: the “% Inhibition @ 10 uM” value stood at 2.51%. In the case of `O=C(NCCCN1CCOCC1)c1cc2c(=O)oc3ccccc3c2s1`, the “% Inhibition @ 10 uM” value worked out at 0.813%. The result for `CCCCNC(=O)CN(c1ccc(Cl)c(Cl)c1)S(C)(=O)=O` reads 0.764%. As to `N#CC1=C(N)OC2=C(C(=O)CC(c3ccccc3)C2)C1c1ccc(Cl)c(Cl)c1` (stereo not drawn), the “% Inhibition @ 10 uM” value is given as 16.8%.

As to `Cc1ccc(CN2C(=O)N/C(=C/c3c(F)cccc3Cl)C2=O)cc1`, the “% Inhibition @ 10 uM” value is -8.29%.

Regarding `CSc1ccn(-c2nc(-c3ccccc3)sc2-c2ccccc2)c(=O)n1`, the “% Inhibition @ 10 uM” value is given as 1.33%. Consider `Cc1cc(C(F)F)n2ncc(C(=O)NCc3ccc(Cl)cc3)c2n1`, for which the “% Inhibition @ 10 uM” value was -0.67%. Regarding `O=C(O)c1cnn2c1NC(c1ccccc1)CC2C(F)(F)F` (stereo not drawn), the “% Inhibition @ 10 uM” value is recorded as 3.32%. Consider `O=C(COc1ccc2ccccc2c1)Nc1cc(C(=O)O)cc(C(=O)O)c1`, for which the “% Inhibition @ 10 uM” value is reported as -0.968%. The result for `CCCOc1ccc(C2C(C#N)=C(N)Oc3c2oc(CO)cc3=O)cc1OC` (stereo not drawn) reads -1.21%.

For `COc1ccc(/C=C/C(O)=C(\C#N)c2nc3ccccc3[nH]2)cc1OC`, the “% Inhibition @ 10 uM” value is 0.0069%. As for `CCCNC(=O)CSc1nc(-c2ccc(OC)c(OC)c2)cc(C(F)(F)F)n1`, the “% Inhibition @ 10 uM” value is reported as 15.3%. For `Cc1ccc(C(=O)Nc2ccc(S(=O)(=O)N3CCCCCC3)cc2)cc1Br` the value was -6.65%; for `COc1ccc(Br)cc1CN1CCN(C(=O)c2cccc(F)c2)CC1`, -1.04%; for `Cc1ccsc1/C=c1\sc2nnc(-c3ccc(Cl)cc3)n2c1=O`, -3.64%. Take `COc1cccc(/C=C2\N=C(c3ccc(Cl)cc3Cl)OC2=O)c1`: the “% Inhibition @ 10 uM” value is listed as -4.84%.

For `Cc1cccc2sc(NC(=O)c3ccccc3)nc12`, the “% Inhibition @ 10 uM” value is on record as 2.07%.

Consider `O=C1Oc2ccccc2C(=O)/C1=C(O)/C=C/c1ccccc1O`, for which the “% Inhibition @ 10 uM” value was 0.238%.

On to `CSc1ccc(CCNC(=O)c2ccc(CS(=O)Cc3ccccc3Cl)o2)cc1` (stereo not drawn), for which the “% Inhibition @ 10 uM” value is on record as 2.57%. On to `O=C(CSc1nc2cccnc2[nH]1)NCc1ccccc1Cl`, for which the “% Inhibition @ 10 uM” value is on record as -3.53%. For `O=C(CCCCCN1C(=O)c2ccccc2C1=O)NCCc1nc2ccccc2[nH]1` the value was -7.46%; for `N#CC1=C(N)Oc2[nH]nc(-c3ccc4c(c3)OCO4)c2C1c1cccs1` (stereo not drawn), -2.88%.

For the compound `O=C(NCCN1CCOCC1)C(=O)NCc1ccco1`, the “% Inhibition @ 10 uM” value came out at 3.72%. For `CCOC(=O)N1CCN(S(=O)(=O)N2CCCC(C(=O)NCc3ccc(F)cc3Cl)C2)CC1` (stereo not drawn) the value was 2.05%; for `CC(NC(=O)/C=C/c1ccc2c(c1)OCO2)c1ccccc1` (stereo not drawn), 4.1% and -0.569%; for `CS(=O)(=O)N1CCC(C(=O)NC2CCCCCCC2)CC1`, -6.88%.

Regarding `Cc1ccc(Nc2nc(N)nc(-c3cc(Cl)ccc3O)n2)cc1`, the “% Inhibition @ 10 uM” value came to 0.583%. Turning to `CCc1ccc(CNC(=O)C2CCN(C3=NS(=O)(=O)C(c4ccc(C)c(C)c4)=C3C)CC2)cc1`, the “% Inhibition @ 10 uM” value is recorded as -0.12%. For `N#C/C(=C(/O)c1ccc(F)cc1)c1nc2ccccc2s1` the value was 5.94%. Regarding `COc1ccc(OC)c(N2C(=O)CC(N3CCN(c4ccccc4)CC3)C2=O)c1` (stereo not drawn), the “% Inhibition @ 10 uM” value is -1.17%.
